Data taken from PubChem BioAssay AID720707 (National Center for Advancing Translational Sciences (NCATS), 2013).
About 270 (0.075%) of roughly 360,000 compounds were called active. The shares of active, inactive and inconclusive entries below differ from those in the screen. The call rests on the fitted dose curve; in most records, active means well fitted activation curve with a large enough effect; inconclusive means small, poorly fitted or top-dose-only effect; inactive means no such curve, though single readings can be large or run the other way. Potencies of inconclusive entries are doubtful fits and often do not repeat.

Target: Rap guanine nucleotide exchange factor 3 (Homo sapiens) (UniProt O95398)
Assay: qHTS for Agonist of cAMP-regulated guanine nucleotide exchange factor 3 (EPAC1): primary screen; further: nearly all actives have a fitted effect of over 60% in size
Conditions: biochemical assay; activation: at 154 µM (top of the series), 100% = response to 6.5 mM cAMP
Outline: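 Fluorescent GDP-exchange assay: 100 nM EPAC1 with 250 nM Rap1B preloaded with BODIPY-GDP and 50 uM GDP; compounds tested as concentration series, 5 min at room temperature, then read every 5 min for 30 min (ex 480/em 540 nm); normalized to 6.5 mM cAMP.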
Potency means the concentration at half of the fitted maximal effect; tags describe the fitted curve by direction and shape.

UniProt O95398, sequence (O95398 whole entry, looked up): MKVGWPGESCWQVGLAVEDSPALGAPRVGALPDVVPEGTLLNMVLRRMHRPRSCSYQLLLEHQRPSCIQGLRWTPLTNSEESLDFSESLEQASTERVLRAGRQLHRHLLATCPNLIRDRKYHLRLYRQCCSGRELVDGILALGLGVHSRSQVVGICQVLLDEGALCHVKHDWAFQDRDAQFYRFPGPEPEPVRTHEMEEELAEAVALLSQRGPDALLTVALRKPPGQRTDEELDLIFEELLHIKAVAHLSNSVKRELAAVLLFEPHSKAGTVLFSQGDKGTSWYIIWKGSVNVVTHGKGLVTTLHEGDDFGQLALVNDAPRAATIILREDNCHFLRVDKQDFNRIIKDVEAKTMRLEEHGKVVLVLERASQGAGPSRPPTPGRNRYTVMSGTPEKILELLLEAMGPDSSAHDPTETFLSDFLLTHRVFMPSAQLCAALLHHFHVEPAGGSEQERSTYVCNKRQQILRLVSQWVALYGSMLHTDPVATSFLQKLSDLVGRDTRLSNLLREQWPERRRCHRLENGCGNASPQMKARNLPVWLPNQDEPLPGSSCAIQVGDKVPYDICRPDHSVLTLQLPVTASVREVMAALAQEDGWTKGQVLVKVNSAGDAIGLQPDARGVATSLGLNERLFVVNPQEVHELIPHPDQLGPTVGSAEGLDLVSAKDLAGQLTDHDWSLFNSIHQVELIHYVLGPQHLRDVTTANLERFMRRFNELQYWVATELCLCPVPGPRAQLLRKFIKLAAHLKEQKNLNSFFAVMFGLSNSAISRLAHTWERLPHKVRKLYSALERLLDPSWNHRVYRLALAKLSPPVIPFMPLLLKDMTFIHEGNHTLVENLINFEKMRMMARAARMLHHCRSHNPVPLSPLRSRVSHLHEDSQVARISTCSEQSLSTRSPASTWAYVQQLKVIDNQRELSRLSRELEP

Potency, inconclusive:
CCCCn1c(N)c(N(CC(C)C)C(=O)Cc2ccc(S(=O)(=O)N3CCOCC3)s2)c(=O)[nH]c1=O 100 µM [activator, single point]
CN(C)c1ccc(C=C2SC(=S)N(Cc3ccco3)C2=O)cc1 126 µM [activator, single point]
O=C(Nc1nc(-c2ccc(Cl)cc2)cs1)C1=COCCO1 70.8 µM [activator, partial curve, poor fit]
CN(C)CCCN(C(=O)COc1ccc(Cl)cc1)c1nc2cc3c(cc2s1)OCCO3 100 µM [activator, single point]
Cc1cc(/C=C2\NC(=S)N(C)C2=O)ccc1N1CCCC1 126 µM [activator, single point]
NC(=O)c1c(NC(=O)C2COc3ccccc3O2)sc2c1CCN(Cc1ccccc1)C2 (configuration not stated) 112 µM [activator, single point]
Cc1cc(C)c2c3c(sc2n1)C1(CCSCC1)C(C#N)=C(N)O3 112 µM [activator, partial curve]
O=C1CCc2cc(S(=O)(=O)Nc3ccccc3)cc3c2N1CC3 63.1 µM [activator, partial curve, poor fit]
O=C(CCNc1cc(Cl)cc(Cl)c1)c1cccs1 112 µM [activator, single point]
CN(CC(=O)Nc1cccc(F)c1)C(=O)C1CC(=O)N(CCc2ccccc2)C1 (configuration not stated) 50.1 µM [activator, single point]
COC(=O)c1cc(NC(=O)c2ccccc2)c(=O)oc1/C=C/Nc1ccc(Oc2ccccc2)cc1 100 µM [activator, partial curve]
CCC1(c2ccc(F)cc2)NC(=O)N(CC(=O)c2cc(C)n(C3CC3)c2C)C1=O (configuration not stated) 56.2 µM [activator, partial curve]
CCOC(=O)N1CCN(C(=O)COC(=O)C2CCN(S(=O)(=O)c3c(C)c(C)cc(C)c3C)CC2)CC1 22.4 µM [activator, full curve]
CCOC(=O)c1c(N)sc(-c2ccccc2)c1C 56.2 µM [activator, full curve, poor fit]
O=C(CNC(=O)c1ccc(Cl)cc1Cl)OCn1nnc2ccccc2c1=O 35.5 µM [activator, partial curve]
COc1ccc(C)cc1S(=O)(=O)N(CC(=O)NCc1ccc(Cl)cc1)Cc1ccccc1 112 µM [activator, partial curve, poor fit]
CC1CCN(S(=O)(=O)c2cc(Br)cc(C(=O)NC3=NCCS3)c2)CC1 112 µM [activator, single point]
COc1ccc(N/C=C2\CCc3ccccc3C2=O)cc1 63.1 µM [activator, partial curve]
CC(C)CC(=O)Nc1nc(-c2ccc(S(=O)(=O)N3CCOCC3)cc2)cs1 10 µM [activator, full curve, poor fit]
O=c1ccc2cc3c4c(c2o1)CCCN4CCC3 100 µM [activator, partial curve]
CCN1CCN(c2ccc(S(=O)(=O)N3CCCCC3)cc2NC(=O)c2ccc([N+](=O)[O-])s2)CC1 126 µM [activator, single point]

Potency, active:
O=C(NCc1ccco1)c1cccc2c1C(=O)c1ccc(N3CCCC3)cc1S2(=O)=O 89.1 µM
O=C1CCN2C=Nc3cccc4ccc1c2c34 63.1 µM
Cc1ccc2nc3sc(C(=O)NCc4ccco4)c(N)c3cc2c1 100 µM
COc1cc(C2C=C(c3cccs3)Nc3ncnn32)cc(OC)c1OC (configuration not stated) 100 µM
CC(C)(C)c1ccc(OCCC(=O)OCC(=O)Nc2ccc(N3CCOCC3)cc2)cc1 70.8 µM
CCN1CC=C2C(C#N)=C(N)C(C#N)(C#N)C(CCc3ccccc3)C2C1 (configuration not stated) 100 µM
COc1cc(NC(=S)NCCC(c2ccccc2)c2ccccc2)cc(OC)c1 89.1 µM
O=c1nc2s/c(=C\c3ccc(-c4ccccc4[N+](=O)[O-])o3)c(=O)n2nc1-c1ccccc1 112 µM

Potency, inactive:
Cc1ccccc1NS(=O)(=O)c1ccc(C(=O)N2CCN(S(=O)(=O)c3ccccc3)CC2)cc1
Cc1cccc(C)c1NC(=O)CN(C)C(=O)c1ccc(-n2cncn2)c([N+](=O)[O-])c1
COc1ccc(CCNC(=O)COc2ncnc3cc([N+](=O)[O-])ccc23)cc1
CCOc1ccccc1NC(=O)Nc1ccc2c(c1)OCO2
CCCCCCSc1ccc([C@@H]2[C@@H]3C(=O)N(C)C(=O)[C@@H]3[C@]3(C(=O)OC)CCCCN23)cc1OC
CCOc1ccccc1N1CSC2=C(C#N)C(c3c(OC)ccc4ccccc34)CC(=O)N2C1 (configuration not stated)
Cc1cc(/C=C2/NC(=O)NC2=O)c(C)n1-c1ccccn1
O=C(O)COc1ccc2occ(C(=O)c3ccccc3)c2c1
CCCn1c(=O)c(C(=O)OCC)c(O)c2cc(Br)ccc21
CCNc1nc(OC)nc(Oc2ccc(C(=O)OC)cc2)n1
Cc1ccc2nc(CSc3nnc(-c4ccco4)o3)cc(=O)n2c1
Cc1ccc(S(=O)(=O)N(CC(=O)NC2CC3CCC2C3)c2ccccc2)cc1 (configuration not stated)
O=c1[nH]c(C2CCN(S(=O)(=O)c3cccc([N+](=O)[O-])c3)CC2)nc2c1nnn2Cc1ccccc1
CCOC(=O)N1CCC(N2CCN(c3cc(C)ccc3C)CC2)CC1
COCCCN1C(=O)C(CC(=O)NCc2cccs2)CC(C(=O)N(C)C)=C1C (configuration not stated)
NS(=O)(=O)c1ccc(NCCCn2ccnc2)c([N+](=O)[O-])c1
c1ccc(-c2nc(-c3ccncc3)no2)cc1

activation, inconclusive:
CC(C)(C)CNC(=O)c1cccc2c1C(=O)c1ccc(N3CCCC3)cc1S2(=O)=O 12.2% [activator]
